Reference: PMC4336329 (PLoS ONE, 2015)
Among all 310,000 compounds or so, about 2,200 (0.71%) showed an effect of 50% or more. The effect is printed as a negative number. Some of the results follow.

Biological target: human ether-à-go-go-related gene (hERG) potassium channel (human, UniProt Q12809)
Assay: primary screen, population patch clamp on CHO cells stably expressing hERG

human ether-à-go-go-related gene (hERG) potassium channel, sequence (Q12809 whole entry, looked up): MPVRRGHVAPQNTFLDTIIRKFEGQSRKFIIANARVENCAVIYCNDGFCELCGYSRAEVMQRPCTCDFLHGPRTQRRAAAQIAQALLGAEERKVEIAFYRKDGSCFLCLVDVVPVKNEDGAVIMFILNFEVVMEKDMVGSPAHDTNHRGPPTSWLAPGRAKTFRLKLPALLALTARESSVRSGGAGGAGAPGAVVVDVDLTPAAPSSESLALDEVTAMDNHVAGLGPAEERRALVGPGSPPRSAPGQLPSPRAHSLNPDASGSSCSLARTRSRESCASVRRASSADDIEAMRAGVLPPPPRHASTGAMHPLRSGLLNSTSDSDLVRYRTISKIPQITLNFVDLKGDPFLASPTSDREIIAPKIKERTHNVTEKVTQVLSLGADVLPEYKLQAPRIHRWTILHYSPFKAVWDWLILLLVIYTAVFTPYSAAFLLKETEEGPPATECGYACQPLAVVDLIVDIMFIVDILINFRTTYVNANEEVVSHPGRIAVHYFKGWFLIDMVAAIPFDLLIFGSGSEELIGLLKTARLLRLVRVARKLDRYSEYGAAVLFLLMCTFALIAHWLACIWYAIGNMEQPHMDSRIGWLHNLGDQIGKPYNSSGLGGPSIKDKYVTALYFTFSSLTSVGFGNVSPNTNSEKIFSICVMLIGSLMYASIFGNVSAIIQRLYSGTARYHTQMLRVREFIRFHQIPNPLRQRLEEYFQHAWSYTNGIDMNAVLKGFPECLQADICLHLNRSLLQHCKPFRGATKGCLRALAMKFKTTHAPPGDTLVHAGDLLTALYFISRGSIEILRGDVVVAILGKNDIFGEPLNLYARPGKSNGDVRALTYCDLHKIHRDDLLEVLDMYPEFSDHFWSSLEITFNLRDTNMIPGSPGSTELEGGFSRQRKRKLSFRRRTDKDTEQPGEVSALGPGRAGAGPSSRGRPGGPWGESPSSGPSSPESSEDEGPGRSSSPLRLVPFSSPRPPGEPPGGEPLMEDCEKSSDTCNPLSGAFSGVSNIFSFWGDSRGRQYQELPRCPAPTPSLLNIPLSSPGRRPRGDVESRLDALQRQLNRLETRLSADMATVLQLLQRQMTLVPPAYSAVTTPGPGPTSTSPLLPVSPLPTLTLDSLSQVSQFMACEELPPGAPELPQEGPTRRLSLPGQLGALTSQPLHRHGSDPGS

SMILES	hERG current change (%, negative = inhibition) at 1uM [%]
COc1ccc(NCc2nnc(SCC(=O)c3ccc(OC)cc3)o2)cc1	5.43
O=C(O)CSCC(=O)Nc1cc(C(F)(F)F)ccc1Cl	12.5
COc1ccc2nc(-c3ccccc3)nc(C3CCCCC3)c2c1	8.12
N#CCc1ccc(C(=O)c2ccccc2F)s1	10.5
O=C(Cn1cnc2ccccc21)Nc1ccccc1-c1ccccc1	9.11
O=C(c1ccc2c(c1)OCO2)N1CCc2ccccc21	11.5
CCCn1c(C)cc(C(=O)CN2C(=O)c3ccccc3C2=O)c1C	8.95
O=C(COc1ccc(Cl)cc1)Nc1nnc(-c2ccco2)o1	5.34
O=C(NCCCO)c1cc2c([nH]c3ccccc32)c(-c2ccc(F)cc2)n1	-6.71
Cc1oc(-c2cccs2)nc1CN1CC[C@@](O)(c2ccccc2)[C@H]2CCCC[C@@H]21	18.4
O=C(c1ccccn1)N1CCCC(N2CCN(c3ccc(F)cc3)CC2)C1 (stereo not drawn)	7.92
CC(=O)NC(=S)Nc1cccc(S(=O)(=O)NC2=NCCC2)c1	-2.32
O=C1NCCCN1Cc1ccc(F)cc1	-6.41
O=C(O)c1ccc(Cl)c(NCc2cccs2)c1	19.9
COc1cc(NS(=O)(=O)c2ccc(C)cc2)ccc1-n1cnnn1	3.49
OCC[C@@H]1C[C@H](O)[C@@H](O)[C@]2(OCc3ccccc32)O1	11.7
CC1CCN(CCNC(=O)c2ccc(NC(=O)C3CCCO3)cc2)CC1 (stereo not drawn)	0.659
CCNc1cc2n(c(=O)n1)CCc1cc(OC)c(OC)cc1-2	3.77
O=C(C(=O)N1CCCc2ccccc21)N1CCCc2ccccc21	-7.46
C[C@@H]1CC=C[C@H]2[C@H]1C(=O)N(Cc1ccccc1)[C@H]2c1ccc(F)c(/C=C/c2ccccc2)c1	16.7
O=C(CN1C(=O)c2cccc3cccc1c23)Nc1ccccc1C(=O)NCc1ccco1	2.33
Cc1ccc(/C=N/NC(=O)CNC(=O)c2ccc(S(=O)(=O)N(C)C)cc2)o1	16.3
COc1ccccc1-c1noc2ncnc(Nc3ccc4c(c3)OCO4)c12	8.27

SMILES	hERG current change (%, negative = inhibition) at 1uM [%]
Cc1cccc(OC(C)C(=O)Nc2ccc(S(=O)(=O)N3CCCC3)cc2)c1 (stereo not drawn)	8.32
COc1ccc2c(c1)CC(N1CCN(C)CC1)c1cc(OC)ccc1S2.O=C(O)/C=C\C(=O)O (stereo not drawn)	0.852
O=S(=O)(c1cccc2nsnc12)N1CCOCC1	-1.94
COc1ccc(CC2c3cc(OC)c(OC)cc3CCN2C)cc1OC (stereo not drawn)	8.7
CCN(C(=O)COC(=O)CCCN1C(=O)c2cccc3cccc(c23)C1=O)C1CCS(=O)(=O)C1 (stereo not drawn)	9.01
Cc1ccc(SCC(=O)N=C2NC(=O)CS2)cc1	11.1
CN(Cc1cccs1)C(=O)COC(=O)CNC(N)=O	13.1
CCOC(=O)CC(=O)CSc1nc(C)nc2c1oc1ccccc12	24.1
Cc1ccc(CN2CCCCC2C(=O)Nc2ccc(Oc3cccnc3)cc2)o1 (stereo not drawn)	-0.0911
O=C(CNC(=O)c1ccccc1)N/N=C/C=C/c1ccccc1	15.9
Cc1ccc(NC(=O)c2cc(N(C)C)ccc2[P+](=O)O)cc1	4.05
CCOc1ccc(S(=O)(=O)N(C)CC(=O)NC2CC2)cc1	16.1
C=CCn1c(=O)/c(=C\c2ccsc2)s/c1=C(/C#N)C(=O)NCCN1CCOCC1	7.46
Br.CCOC(=O)/C(=N\Nc1ccccc1[N+](=O)[O-])c1csc(N)n1	6.8
NC(=O)/C(=C/c1ccc2c(c1)OCO2)NC(=O)c1ccco1	15.9
O=C1CCCC2=C1C(c1ccccc1)n1c(s/c(=C/c3cccc(F)c3)c1=O)=N2 (stereo not drawn)	19.2
CN1CCN(c2ccc(C(CC(N)=O)NC(=O)Cc3cccc4ccccc34)cc2[N+](=O)[O-])CC1 (stereo not drawn)	12.7
CC(C)(C)SCCNC(=O)/C=C/c1ccc(F)cc1	4.25
CN1CCN(NC(=O)c2cc(-c3ccc(Br)s3)nc3ccccc23)CC1	7.35
COC(=O)C1CCCCN1C(=O)c1ccc(OC2CCN(C(C)=O)CC2)c(OC)c1 (stereo not drawn)	13.4
O=C(Nc1ccc(F)c(Cl)c1)N1CCCC1	11.7
CCOC(=O)Cc1csc(SC(C)C(=O)NC2CCCCC2C)n1 (stereo not drawn)	2.92
CNC(=O)c1nc(C)n(-c2cc(Cl)ccc2Cl)n1	16.4

SMILES	hERG current change (%, negative = inhibition) at 1uM [%]
COc1cc2c(cc1O)CC1c3c(cc(O)c(OC)c3-2)CCN1C (stereo not drawn)	-49.7
[O-][n+]1onc2c3cc(-c4ccccc4)nnc3ccc21	1.69
Cc1ccccc1C(=O)N1CCC(C(=O)Nc2ccccc2Cl)CC1	15.2
Cc1ccnc2nc(C(=O)Nc3ccc4c(c3)OCO4)nn12	4.76
O=C(COC(=O)CC1CCCC1)Nc1ccccc1[N+](=O)[O-]	11.3
CC1CN/C(=C\C(=O)c2ccc(Cl)cc2)C(=O)N1 (stereo not drawn)	-1.19
C/C(=N/NS(=O)(=O)c1ccc(C)cc1C)c1ccc2c(c1)OCO2	7.65
COc1cc(C(C[N+](=O)[O-])c2c(C)cc3ccccn23)ccc1O (stereo not drawn)	5.13
CN(C)P(=O)(CCl)Nc1ccccc1 (stereo not drawn)	11.8
COc1cc(NC(=O)COC(=O)C2CC2)c(C)cc1[N+](=O)[O-]	12.3
COC(=O)CSc1nnc(-c2cccnc2)n1-c1cccc(OC)c1	11.6
CCOC(=O)C1CCN(C(=O)N2CCOCC2)CC1	0.708
O=C(CN1C(=O)NC2(CCCC2)C1=O)Oc1ccc2ccc(=O)oc2c1	8.19
CCc1ccc(S(=O)(=O)N2CCN(c3ccccc3OC)CC2)cc1	12.2
COC(=O)C1=C(C(=O)OC)[C@@H]2N(Cc3ccccc3)c3ccccc3[C@@]23C[C@@H](CO)N(C(=O)NC2CCCC2)C3=N1	2.25
O=C(NCc1ccccc1)C1CCN(S(=O)(=O)N2CCCCCC2)CC1	4.68
Cc1ccc(N2C(=O)C3C4C=CC(C4)C3C2=O)cc1 (stereo not drawn)	6.86
O=C(Cn1cnc2ccccc2c1=O)OCCCCN1C(=O)c2ccccc2C1=O	10.1
Cc1nn(C)cc1S(=O)(=O)N1CCCC(C(=O)O)C1 (stereo not drawn)	18.4
N#CCCc1cccc(CCC#N)c1	8.54
Cc1ccc2nc(N(CCCN(C)C)C(=O)c3ccc(S(=O)(=O)N4CCc5ccccc5C4)cc3)sc2c1.Cl	5.48
CCOc1cc(/C=C2\C(=O)N(CCC#N)N=C2C)ccc1OCC(N)=O	22
Cc1ccccc1NC(=O)c1cc(C(=O)c2cc(Cl)ccc2O)cn(-c2ccccc2C)c1=O	2.35

SMILES	hERG current change (%, negative = inhibition) at 1uM [%]
O=c1cnnc(N/N=C/C2CC=CCC2)[nH]1 (stereo not drawn)	-3.88
c1ccc(-c2nn3cnnc3c3ccccc23)cc1	6.79
CCOc1ccccc1NC(=O)CSc1ncnc2c1oc1ccccc12	0.609
Cc1ccc(C(=O)c2ccccc2C(=O)OCC(=O)NCCc2ccc(Cl)cc2Cl)cc1	6.78
CC(=NCc1ccco1)c1c(O)n(Cc2ccccc2)c(=O)[nH]c1=O	4.77
CCOC(=O)C1CCCN(Cc2nc(N)nc(Nc3ccc(OC)cc3)n2)C1 (stereo not drawn)	-67.8
Cc1ccc(/C=C(\C#N)C(=O)Nc2cccc3ncccc23)o1.Cl	11.8
Cc1ccc(SCc2cn3cc(Cl)ccc3n2)cc1	2.46
O=C1CCCc2c1nc(-c1ccc([N+](=O)[O-])cc1)n2O	10.6
CCOC(=O)Cc1csc(Nc2ccc(Cl)cc2)n1	10.2
COc1cc(NC(=O)Cn2nc(-c3ccc(F)cc3)ccc2=O)ccc1-n1cnnn1	12
CC(C)C(=O)N1CCN(c2ccc(NC(=O)c3ccc(Br)o3)cc2)CC1	14.2
Cc1cccc(NC(=O)CSc2nnc(C)c(=O)n2N)c1	13.1
FC(F)(F)c1ccc(Cl)c(NC(=S)NC2CC2)c1	1.26
Nc1nc(NCc2cccs2)nn1-c1ccccc1	4.91
O=C(COc1ccccc1[N+](=O)[O-])NC1CC1	1.78
COc1ccc(NC(=O)NNS(=O)(=O)c2ccc(OC)c(OC)c2)c(OC)c1	13.5
O=[N+]([O-])c1ccccc1NCc1c(O)ccc2ccccc12	13.5
O=C(NCc1ccco1)c1cnn2c1NC(c1ccc(Br)cc1)CC2C(F)(F)F (stereo not drawn)	7.95
CCC(=O)Nc1ccc2c(c1)ncn2-c1ccc(OC)cc1	11.4
CCC(CC)NCCOC(=O)c1ccc([N+](=O)[O-])cc1	-3.41
